Results on one molecule are retold here after the supplement of paper PMC8728848.

Some of the results follow.

Common to all, as to experiment: glycan array binding signal (z-score within array); higher = stronger binding
Conditions in all cases: glycan notation: IUPAC condensed, linker removed

Test [1] concerns the target Neu5Gc(a2-8)Neu5Gc(a2-3)Gal(b1-4)GlcNAc(b1-3)Gal(b1-4)GlcNAc. In short, it runs like this: (§1)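 The binding signal is a Z-score computed within each array and averaged over linkers. Arrays of the same protein sequence at different concentrations or buffers were also averaged together. Data originate from 3228 arrays in the Consortium for Functional Glycomics database, kept only where the protein sequence was available.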

For test [2], the target named is Neu5Gc(a2-8)Neu5Gc(a2-6)Gal(b1-4)GlcNAc. The procedure, abridged:
as §1

Test [3] concerns the target Neu5Gc(b2-6)Gal(b1-4)GlcNAc. The procedure, abridged: as §1

B1: Gal 3C (Homo sapiens), P17931 (protein)
chain: YGAPAGPLIVPYNLPLPGGVVPRMLITILGTVKPNANRIALDFQRGNDVAFHFNPRFNENNRRVIVCNTKLDNNWGREERQSVFPFESGKPFKIQVLVEPDHFKVAVNDAHLLQYNHRVKKLNEISKLGISGDIDLTSASYTMI
Consider B1, for which the “glycan array binding signal (z-score)” value was -0.301 in test [1], -0.295 in test [2] and -0.327 in test [3].
